The supplement of paper PMC4604168 (melanoma cell lines)
Some of the results follow. Single values are uncertain, as repeats are few or missing.

These molecules were tested on RVH-421 (assay: cell count relative to DMSO control; melanoma cells; higher = more viable cells). Details: library dose: standard library concentration; 72 h.
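Note: cells treated in 1,536-well plates, then fixed and DAPI-stained, with nuclei counted from automated high-throughput microscope images.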

Q: With `O=c1[nH]nc(Sc2ncc([N+](=O)[O-])s2)n1-c1ccc2c(c1)OCCO2` + CC(C)C[C@H](NC(=O)[C@H](Cc1ccccc1)NC(=O)c1cnccn1)B(O)O [Bortezomib] (first compound 1 µM, partner dose 0.005 µM) as the molecule, how does the cell count read?
A: The cell count was 14.2%.

Q: How did the cell count turn out when `O=c1[nH]nc(Sc2ncc([N+](=O)[O-])s2)n1-c1ccc2c(c1)OCCO2` + CCc1ccc(CCOc2ccc(CC3SC(=O)NC3=O)cc2)nc1 [pioglitazone] (first compound 1 µM, partner dose 10 µM) was run?
A: Its cell count is 85%.

Q: With `C[C@@H]1CCN(C(=O)CC#N)C[C@@H]1N(C)c1ncnc2[nH]ccc12` + COc1ccc(-c2ccc3c(N4CCOCC4)nc(N4C[C@@H](C)O[C@@H](C)C4)nc3n2)cc1CO [KU0063794] (first compound 5 µM, partner dose 0.1 µM) as the molecule, how does the cell count read?
A: Its cell count is 89.5%.

Q: How did the cell count turn out when `C[C@@H]1CCN(C(=O)CC#N)C[C@@H]1N(C)c1ncnc2[nH]ccc12` + O=S(=O)(c1ccccc1)N(CC(F)(F)F)c1ccc(C(O)(C(F)(F)F)C(F)(F)F)cc1 [T0901317] (first compound 5 µM, partner dose 7 µM) was run?
A: The cell count was 94.8%.
